Read counts are not given, so values of variants with three or more changes are uncertain.
B1: LINE1-mini (parent)
chain: GGCAGAGCUCAACACAGCGUGGCAAAGUGGCUGUGGCUAGACUGCC

Variants of: B1
Assay: self-cleavage, relative activity (ratio to wild type); higher = more cleavage; in vitro, sequencing; the parent is a self-cleaving ribozyme

Variant	self-cleavage
GGCAUAGCUCAACACAGCGUGGAACAGUGGCUGCGGCUAGACUGCC [G5U C23A A25C U34C]	0.04
GGCAUAGCUCAACACAGCGUGGGUAAGUGGCUGUGGCUAGAGUGCC [G5U C23G A24U C42G]	0.05
GGCAUAGCUCAACACAGCGUGGGAAAGUGGCUGUUGCUAGACUGCC [G5U C23G G35U]	0.03
GGCAUAGCUCAACACAGGGUUUCAAAGUGGCUGUGGCUAGACUGCC [G5U C18G G21U G22U]	0.07
GGCAUAGCUCAACACAGUGUCGCAGGGUCGCUGUGGCUAGACUGCC [G5U C18U G21C A25G A26G G29C]	0.02
GGCAUAGCUCAACACAGCGUGGCAAAGUGGUUGUGGCUAGACUGCU [G5U C31U C46U]	0.05
GGCAUAGCUCAACACAGUGUGGCAAAGUUGCUGUUGCUAGACUGCC [G5U C18U G29U G35U]	0.03
GGCAUAGCUCAACACAGCGUGGCAAAGUGGCUGUGGAUAAACUGCC [G5U C37A G40A]	0.23
GGCAUAGCUCAACACAGUUUGGCAAGGUGGCUUUGGCUAGACUGCC [G5U C18U G19U A26G G33U]	0.03
GGCAUAGCUCAACACAGAUUGGCUAAGUGGCUGUGGCUAGACUUCC [G5U C18A G19U A24U G44U]	0.02
GGCAUAGCUCAACACAGCGUGGUAAAGUGGCUGUGGCUAUGCUGCC [G5U C23U G40U A41G]	0.05
GGCAUAGCUCAACAUAGCGUGGCAAAGUGGCUGUGACUAGACUGCC [G5U C15U G36A]	0.15
GGCAUAGCUCAACACAGAGUGGUAAAGUGGCUGUGGCUAUACUGUC [G5U C18A C23U G40U C45U]	0.03
GGCAUAGCUCAACAUAGCGUGGCAAAGUUGCUGUGGCUAGACAGAC [G5U C15U G29U U43A C45A]	0
GGCAUAGCUCAACACAGCGUGGGAUAGUGGCUGUUGCUAGACUGCC [G5U C23G A25U G35U]	0.22
GGCAUAGCUCAACACAGCGUGGCAAAGUGGAUGUGGCCCGACUGCC [G5U C31A U38C A39C]	0.02
GGCAUAGCUCAACACAGCGUGGAUAAGUGGCUGUGGCUCGACUGCU [G5U C23A A24U A39C C46U]	0.03
GGCAUAGCUCAACACAGCGUGGUAAAGUGGCUGUUGCUAGACUGCC [G5U C23U G35U]	0.07
GGCAUAGCUCAACACAGCGUGGUAAAGUGGCUGUGGCUAGAGUGAC [G5U C23U C42G C45A]	0

Variant	self-cleavage
GGCAUAGCUCAACACAGCGUGGCAAAGUGGGUGUGGCUAGACUUCC [G5U C31G G44U]	0.03
GGCAUAACUCGACACAGCGUGGCAAAGCGGCGGUGGAUAGACUGCC [G5U G7A A11G U28C U32G C37A]	0.01
GGCAUAGCUCAACAUAGCGUGGCAAAGUGGCUGUGGGUAGACUGGC [G5U C15U C37G C45G]	0.03
GGCAUAGCUCAACACAGCGUGGCAAAGUGGCUGUGGGUAGACUACC [G5U C37G G44A]	0.08
GGCAUAGCUCAACACAGCGUGGAAAAGUGGCUGUGGUUUGACUGCC [G5U C23A C37U A39U]	0
GGCAUAGCUCAACACAGAGUGGCAAAGUGGCUGUGGCUAGGCUGCC [G5U C18A A41G]	0.02
GGCAUAGCUCAACACAGCGUGGCAAAGUGGCUGUGGAUAGAAUGAC [G5U C37A C42A C45A]	0.01
GGCAUAGCUCAACAGAGCGUGGCAAAGUGGCUGUGGCUAGAGUGCC [G5U C15G C42G]	0.04
GGCAUAGCUCAACAUAGGGUGGAAAAGUGACUGUGGCUAGAUUGCC [G5U C15U C18G C23A G30A C42U]	0.03
GGCAUAGCUCAACACAGCGUGGUAAAGUGGCUAUGGCUAUGCUGCC [G5U C23U G33A G40U A41G]	0.06
GGCAUAGCUCAACACAGUGUGGCAAUGUGGCUGUGGCUAGACUGCC [G5U C18U A26U]	0.03
GGCAUAGCUCAACACAGUGUGGCAACGUGGCUGUGGCUAGACUGCC [G5U C18U A26C]	0.19
GGCAUAGCUCAACACAGAGUGGCAAAGUGGCUGUGGCUAGACUGCU [G5U C18A C46U]	0.08
GGCAUAGCUCAACAUAGCGUGGCAAAGUGGCGGUGGCUAGACUGCC [G5U C15U U32G]	0.1
GGCAUAGCUCAACACAGAGUGGCAAACUGGCUGUGGCUAGAUUGCC [G5U C18A G27C C42U]	0.05
GGCAUAGCUCAACACAGCGUGGUAAAGUGGCUGUGGCUAGACUGAC [G5U C23U C45A]	0.1
GGCAUAGCUCAACACAGAGUGGCAAGGUGGCUGUGGCUAUACUGCC [G5U C18A A26G G40U]	0.03
GGCAUAGCUCAACAUAUCGUGGCAAAGUUGCUGUGGCUAGACUGCC [G5U C15U G17U G29U]	0.05
GGCAUAGCUCAACAUAGCGUGGCAAAGUGUCUGUGGCUAGGCUGCC [G5U C15U G30U A41G]	0.2

Variant	self-cleavage
GGCAUAGCUCAACAGAGCGUGGCAAAGUGGCCCUGGCUAGACUGCC [G5U C15G U32C G33C]	0.02
GGCAUAGCUCAACACAGAGUGGCAAAGUGGCUGCGGCUAGACUGCC [G5U C18A U34C]	0.19
GGCAUAGCUCAACACAGCGUGGCAAAGUGGAUGUAGCUAGACUGCC [G5U C31A G35A]	0.03
GGCAUAGCUCAACACAGCGUGGAAAAGUGGUUGUGGCUAGACUGCC [G5U C23A C31U]	0.02
GGCAUAGCUCAACACAGAGUGGCAAAGUGGCUGUUACUAAACUGCC [G5U C18A G35U G36A G40A]	0.02
GGCAUAGCUCAACACAGCGUGGCAAAGUGGCUGUGGAUAGACUGCA [G5U C37A C46A]	0.03
GGCAUAGCUCAACACAGAGUGGCAAGGUGGUUGUGGCUAGACUGCC [G5U C18A A26G C31U]	0.02
GGCAUAGCUCAACACAGCGUGGCAAAGUGGUUGUUGCUAGACUGCC [G5U C31U G35U]	0.03
GGCAUAGCUCAACACAGGGUGGCAAAGUGGCUGUUGCUAGACUACC [G5U C18G G35U G44A]	0.01
GGCAUAGCUCAACACAGGAUGGCAAAGUGGCUGUGGCUAGACUGCC [G5U C18G G19A]	0.03
GGCAUAGCUCAACACAGCGUGGCAAAGUGGAUGUGGCUUGACUGCC [G5U C31A A39U]	0.04
GGCAUAGCUCAACACAGCGUGGAAAAGUGGCUGUGACUAGACUGCC [G5U C23A G36A]	0.07
GGCAUAGCUCAACAGAGCGUCGCAAAGUGGCCGUGGCGACUCUGCC [G5U C15G G21C U32C U38G G40C A41U]	0.01
GGCAUAGCUCAACACAGCGUGGCAAAGUGGCUGUGGCUAGAAUGCU [G5U C42A C46U]	0.14
GGCAUAGCUCAACACAGAGUGGCAAAGUGCCUGUGGCUAGACUGCC [G5U C18A G30C]	0.11
GGCAUAGCUCAACACAGCGUGGGAAAGUAGCUGUGUCUUGACUGCC [G5U C23G G29A G36U A39U]	0.02
GGCAUAGCUCAACAUAGCGUGGCAAAGUGGCUGUGGGUAGACUGCC [G5U C15U C37G]	0.05
GGCAUAGCUCAACAUAGCGUGGCAAAGUGGCUGUGGAUAGACUGCC [G5U C15U C37A]	0.08

From the RNAGym collection of RNA variant scans (doi:10.7554/elife.90254)
